Consider 54 molecules from ChEMBL document CHEMBL4888484, “Replenishing the malaria drug discovery pipeline: Screening and hit evaluation of the MMV Hit Generation Library 1 (HGL1) against asexual blood stage Plasmodium falciparum ,using a nano luciferase reporter read-out” (2022).

In all, about 150,000 compounds went through this assay and about 540 (0.36%) showed an effect of 50% or more. The list shows a part of the results.

The test system of the test is Plasmodium falciparum. The experiment in a line: Primary screen in NF54 nanoGlo assay, in single point, at 2uM, 72h; a lower Z score goes with more inhibition. As to conditions: timepoint 72 hour. The format is functional, Erythrocyte.
On to `CN(CC[C@H]1CCCCO1)C(=O)c1cc(Cl)c[nH]1`, for which the “% Inhibition” value is 5% and the Z score is recorded as -0.51.
On to `CCOC(=O)CN(CC)C(=O)c1cnn(C)c1`, for which the “% Inhibition” value is recorded as -6% and the Z score is recorded as 0.75.
Taken in the same sequence, the figures for `CC1(C)C[C@@H]1C(=O)N1CCCN(C(=O)C(F)(F)F)CC1` were 2% and -0.24.
In the same order, the values of `O=C(C1CCC1)N(CCN1CCCC1)[C@H]1CCCN(C2CCCC2)C1` are -2% and 0.32.
Taken in the same sequence, the figures for `NS(=O)(=O)c1ccc(CNc2cc(C3CC3)ncn2)cc1` were -8% and 1.17.
As for `CCCN1C(=O)COc2cc(-c3noc(C(=O)NCCc4ccccc4)n3)ccc21`, the “% Inhibition” value is -7% and the Z score is 0.86.
In the same order, the values of `CS(=O)(=O)N(CCCN1CCOCC1)[C@H]1CCN(C(=O)NCCc2ccccc2)C1` are -6% and 0.65.
`CCn1ncc(CNC(=O)NC[C@H]2CS(=O)(=O)c3ccccc32)n1`: the “% Inhibition” value was -11% and the Z score is reported as 2.04.
Taken in the same sequence, the figures for `O=C(Nc1cccc2c1CCCC2)c1ccc2c(c1)OCO2` were -11% and 1.42.
Consider `Cc1cccc(NCC2CC(O)CN2Cc2ccccc2)n1` (stereo not drawn), for which the “% Inhibition” value worked out at 14% and the Z score is -2.07.
Taken in the same sequence, the figures for `Cc1cnc(C)c(N2C[C@@H]3OC(=O)N(Cc4ccccn4)[C@@H]3C2)n1` were -2% and 0.35.
Taken in the same sequence, the figures for `O=C(NCc1cnccc1C(F)(F)F)c1cncc(N2CCOCC2)c1` were -10% and 1.61.
Regarding `Cc1cc(-c2ccc(C(C)C)cc2)n(-c2ccccn2)n1`, the “% Inhibition” value is recorded as -16% and the Z score worked out at 2.17.
Taken in the same sequence, the figures for `O=c1c2c(-c3ccc(Cl)cc3)noc2ncn1Cc1ccccc1F` were -1% and 0.12.
In the same order, the values of `CCC(CC)c1nnc(NC(=O)[C@@H]2COc3ccccc3O2)s1` are -7% and 1.06.
In the same order, the values of `COc1cc2c(cc1OC)CN(C(=O)C[C@H]1CNCCO1)CC2` are -9% and 1.43.
On to `COCC(=O)N[C@@H](C(N)=O)c1ccc(F)cc1`, for which the “% Inhibition” value is listed as -1% and the Z score is given as 0.15.
Taken in the same sequence, the figures for `CC(C)c1nnc(-c2ccc(=O)n(CC(=O)Nc3ccccc3)c2)o1` were -6% and 0.99.
In the same order, the values of `C#Cc1cccc(NCc2cc(=O)n3cc(C)ccc3n2)c1` are -7% and 0.67.
In the same order, the values of `COc1ccc(NC(=O)[C@@H]2COc3ccccc3O2)cc1S(=O)(=O)N1CCOCC1` are -16% and 1.82.
On to `CCNS(=O)(=O)[C@H]1CCN(c2nnc(C3CCC3)n2CC)C1`, for which the “% Inhibition” value was determined as 4% and the Z score was -0.52.
Taken in the same sequence, the figures for `C=CCn1cc(CN[C@@H](C)c2nc(-c3ccccn3)no2)c(C)n1` were 2% and -0.3.
`O=C(NCCc1ccsc1)c1nc[nH]c1C(F)(F)F`: the “% Inhibition” value was found to be 31% and the Z score is -3.45.
Taken in the same sequence, the figures for `CC(=O)N(C)c1cccc(NC(=O)NC(C)(C)c2cccc(F)c2)c1` were -7% and 0.55.
Taken in the same sequence, the figures for `CCC1(CC)CN(C(=O)c2cc(C(F)F)ncn2)CC[S@@+]1[O-]` were 1% and -0.15.
In the same order, the values of `CCC1(CC)CN(C(C)C(=O)Nc2nccs2)CC[S+]1[O-]` (stereo not drawn) are -1% and 0.13.
Regarding `Cc1cc(C(=O)N2CCC[C@H]2c2nnc3ccccn23)c(C)o1`, the “% Inhibition” value was -3% and the Z score is 0.57.
In the same order, the values of `CCCc1nc(N2CCN(C(=O)c3ccc(Cl)c(Cl)c3)CC2)c2c(-c3ccc4ccccc4c3)noc2n1` are -17% and 1.72.
In the same order, the values of `CN(Cc1nccs1)C(=O)[C@H]1CCCN(c2ncnc3sccc23)C1` are -14% and 1.88.
With `CC(C)[C@H](NC(=O)c1csc(-c2ccccn2)n1)C(=O)O`, the “% Inhibition” value is -14% and the Z score amounted to 1.43.
Taken in the same sequence, the figures for `CCc1ccc(-c2cc(C)no2)cc1S(=O)(=O)N1CCCN(Cc2ccc(F)cc2)C1` were 4% and -0.5.
Taken in the same sequence, the figures for `Cc1nc(C#N)c(C#N)n1Cc1nnnn1-c1ccccc1` were -11% and 1.02.
For `COc1cccc(F)c1-c1c(-c2ccccc2)ncn1Cc1ncc[nH]1`, the “% Inhibition” value stood at 8% and the Z score is recorded as -1.28.
As to `O=C(Cc1c(Cl)cccc1Cl)N1CCC(OC2CNC2)CC1`, the “% Inhibition” value is on record as -6% and the Z score worked out at 0.81.
Taken in the same sequence, the figures for `Cc1ccc(-c2cc(-c3ccc(C)cc3)n(-c3nc(-c4ccccc4)cs3)n2)cc1` were -8% and 1.52.
Taken in the same sequence, the figures for `CN(C[C@]1(O)CCc2ccccc21)C(=O)c1ccc(S(C)(=O)=O)o1` were -5% and 0.69.
In the case of `Cc1nc[nH]c1CN1C[C@H]2CC[C@@H](C1)N(C(=O)c1scc3c1CCCC3)C2`, the “% Inhibition” value is given as 2% and the Z score was -0.28.
Taken in the same sequence, the figures for `COC[C@H](NCCc1cc(F)cc2c1OCOC2)C1CC1` were 63% and -8.98.
Taken in the same sequence, the figures for `CC(=O)NC(C)(C)C[C@H](C)N1CC(c2ccncc2)C1` were -3% and 0.36.
Taken in the same sequence, the figures for `Brc1cncc(-c2nccn2Cc2nccs2)c1` were -9% and 0.9.
Consider `Cc1nc(CN2CC[C@H](NC(=O)c3ccc[nH]3)[C@@H](O)C2)cs1`, for which the “% Inhibition” value is on record as -16% and the Z score is reported as 1.73.
With `C[C@@H](CNC(=O)C1CCCC1)NC(=O)C1CCCC1`, the “% Inhibition” value is given as 8% and the Z score was -1.04.
In the same order, the values of `CCC(CC)N(Cc1ccc2c(c1)OCO2)C(=O)Cn1ccnc1` are -2% and 0.27.
Taken in the same sequence, the figures for `COC(=O)c1ccc2oc(-c3ccc(-c4nc5cc(C(=O)OC)ccc5o4)c4ccccc34)nc2c1` were -7% and 0.89.
Taken in the same sequence, the figures for `Cc1cccc(CNC(=O)c2ccc(C)nc2C2CCN(Cc3cccc(Cl)c3)CC2)c1` were 1% and -0.18.
Consider `C[C@H](NC(=O)[C@H]1CC[C@H](Cn2cnc3ccccc3c2=O)CC1)C(=O)O`, for which the “% Inhibition” value is recorded as -8% and the Z score worked out at 1.09.
In the same order, the values of `Cc1cc(NC(=O)COc2ccccc2C(=O)N2CCCCC2)no1` are -4% and 0.9.
As for `CC1CN(C(=O)C2Cc3ccccc3O2)CCN1` (stereo not drawn), the “% Inhibition” value was 0% and the Z score came out at 0.03.
Turning to `Cc1sc2ncnc(OCC(=O)N3CCCC3)c2c1C`, the “% Inhibition” value is given as -3% and the Z score is given as 0.58.
In the same order, the values of `COc1ccc(OC)c(C2CCCN2CC(O)c2ccccc2)c1` (stereo not drawn) are -7% and 1.16.
In the same order, the values of `COCCN(CCC#N)C(=O)Nc1nc(C)cs1` are -2% and 0.29.
In the same order, the values of `Cc1cc(C(=O)NCc2cc3n(n2)CCCC3)ns1` are -13% and 1.73.
For `O=C(Cn1cc(-c2ccccc2)ncc1=O)N1CCO[C@H](c2ccccc2)C1`, the “% Inhibition” value is on record as -10% and the Z score came out at 1.28.
Taken in the same sequence, the figures for `CC(C)c1scnc1C(=O)N(C)CCN1C[C@@H](C)O[C@@H](C)C1` were -5% and 0.72.
